# Experimental data published in PubChem BioAssay AID686978 (National Center for Advancing Translational Sciences (NCATS), 2013).
# Among all 420,000 compounds or so, about 64,000 (15%) were called active. Inconclusive means that the source gave no clear call. Such entries were picked first, then a sample of the others. Calls come from the whole dose curve; as a rule, active = well fitted inhibition curve with a large enough effect; inconclusive = small, poorly fitted or top-dose-only effect; inactive = flat fitted curve, though single readings scatter. No potency is given beside an inconclusive call; the fits are too rough.
# Experiment: qHTS for Inhibitors of human tyrosyl-DNA phosphodiesterase 1 (TDP1): qHTS in cells in absence of CPT; note: nearly all actives have a fitted effect of over 55% in size
# Conditions: DT40 Tdp1-/- hTDP1 cells, no CPT, ATP luminescence, 48 h; activity change, negative = growth inhibition: at 46.2 µM (top of the series) unless noted
# In short: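 Compound effects on proliferation are scored in DT40 Tdp1-/-;hTDP1 cells in the absence of CPT. ATP levels (CellTiter-Glo luminescence) are recorded after a ≥48 hr, 37 °C incubation.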
# % is set by controls: 0 for no effect and ±100 for the full control effect; potency is the fitted concentration of half-maximal effect; tags give direction and shape of the fitted curve.
SMILES,Potency,"activity change, negative = growth inhibition"
O=C(NCc1ccccc1)C1CCN(S(=O)(=O)c2ccc3c(c2)CCCN3C(=O)C2CCC2)CC1,"inconclusive [inhibitor, single point]",
c1cn2c(-c3ccc(N4CCOCC4)cc3)cncc2n1,inactive,
Cc1ccc(S(=O)(=O)N2CCOC23CCN(C(=O)C(=O)NCc2ccccc2)CC3)cc1,inactive,
CC(OC(=O)c1ccc(Br)o1)C(=O)Nc1ccc2c(c1)OCCO2 (centres undefined),"inconclusive [inhibitor, single point]",
Cc1ccc(Cn2c(NCCCn3ccnc3)nc3c2c(=O)n(C)c(=O)n3C)cc1,,inconclusive: -31.7% [inhibitor]
O=C1NC[C@H](Cc2ccccc2)N(C[C@@H]2CCCN2C[C@H](Cc2ccc(O)cc2)N2C[C@H](Cc3ccc(O)cc3)N(CC3CCCCC3)C(=O)C2=O)C1=O,active: 23.1 µM,
CCN(CC)CCNc1cccc2sc3ccccc3c(=O)c12,active: 18.4 µM,
Cc1cccc(C)c1NC(=O)C(=O)NCc1ccccn1,inactive,
CCOc1ccc(C2CC(=O)NC3=C2C(=O)CCC3)cc1 (centres undefined),inactive,
O=C(Cn1ncc2c3ccccc3n(Cc3ccccc3)c2c1=O)N1CCN(c2ncccn2)CC1,"inconclusive [inhibitor, single point]",
Cc1ccc(S(=O)(=O)CCC(=O)OCc2ccccc2)cc1,inactive,
Cc1cccc(C)c1-c1ccc(CN2C(CC(C)C)C(=O)N(Cc3cn(CC4CCCCC4)nn3)CCS2(=O)=O)cc1 (centres undefined),active: 23.1 µM,
CSc1nc2nc3c(cc2c(=O)n1-c1cccc(C)c1)COC(C)(C)C3,"inconclusive [inhibitor, single point]",
OC[C@H]1O[C@@H](c2nc(-c3ccccc3Br)no2)[C@H](O)[C@@H]1O,active: 6.51 µM,
Cc1ccc(S(=O)(=O)N2CCC(C(=O)N3CCC[C@H]3C(=O)NC3CCS(=O)(=O)C3)CC2)cc1 (some centres undefined),inactive,
CCCCCSc1ncnc2c1sc1nc(N3CCOCC3)c3c(c12)CCCC3,inactive,
Cc1ccc(Cl)cc1N1CCN(C(=O)CCNS(=O)(=O)c2ccc3c(c2)CCN3C(=O)C2CC2)CC1,active: 23.1 µM,
Cc1cc(OCC(O)CN)ccc1Cl (centres undefined),inactive,
O=C(Cc1cccs1)N=Nc1c(O)[nH]c2ccc(Br)cc12,"inconclusive [inhibitor, single point]",
C1CCN(CCCNC2C3CC4CC(C3)CC2C4)C1 (centres undefined),"inconclusive [inhibitor, single point]",
Cc1ccc2c3c1C1(C(=O)N3C(C)(C)CC2C)C(C#N)=C(N)Oc2cc(O)ccc21 (centres undefined),inactive,
CCN(CCCNS(=O)(=O)c1cc(-c2cc(C)no2)ccc1C)Cc1ccccc1,"inconclusive [inhibitor, single point]",
O=C(C1CCC1)N1CCc2cc(S(=O)(=O)N3CCN(c4ccccn4)CC3)ccc21,"inconclusive [inhibitor, single point]",
CCCNC(=O)C(Cc1ccccc1C)NC(=O)c1ccc(C(F)(F)F)cc1 (centres undefined),inactive,
COC1=CC(=O)C=C(OC)C1(O)CC(C)=O,active: 3.66 µM,

SMILES,Potency,"activity change, negative = growth inhibition"
Cc1n[nH]c(C)c1N1C(=O)c2cccc3cc(Br)cc(c23)C1=O,"inconclusive [inhibitor, single point]",
CCC(C)NC(=O)Cn1c(=O)n(-c2ccc(C)c(C)c2)c(=O)c2c3c(sc21)CCCCC3 (centres undefined),inactive,
COc1ccc(OC)c(NC(=O)c2cc(S(=O)(=O)NCCc3ccc(Cl)cc3)ccc2F)c1,"inconclusive [inhibitor, single point]",
CC(=O)c1cc(Cl)ccc1OC(=O)c1ccco1,inactive,
CC1CCCN(C(=O)C2CCN(c3ncnc4c3nc3n4CCCCC3)CC2)C1 (centres undefined),active: 23.1 µM,
CCNC(=O)CCn1nc(-c2ccc(C)cc2)c2ccccc2c1=O,"inconclusive [inhibitor, partial curve]",
O=C(CCCSc1ccccc1)Nc1nc(-c2ccco2)c(-c2ccco2)s1,"inconclusive [inhibitor, single point]",
COc1cc(SC)ccc1C(=O)Nc1ccccc1C#N,"inconclusive [inhibitor, partial curve, poor fit]",
COc1cc(CCC(=O)Nc2ccc(Br)c(C(F)(F)F)c2)cc(OC)c1OC,active: 20.6 µM,
O=C(CSc1nnc(CCc2ccccc2)n1-c1ccc(Cl)cc1)c1ccccc1,active: 23.1 µM,
CCOc1ccc(CCNC(=O)c2sc3ncccc3c2-n2cccc2)cc1OCC,"inconclusive [inhibitor, single point]",
CCOc1ccc(OCC)c(NC(=O)c2ccc(-c3ccccc3)s2)c1,"inconclusive [inhibitor, partial curve]",
COc1ccc(Cl)cc1C(=O)NNC(=S)NC(=O)c1cc(-c2ccccc2)nc2ccccc12,"inconclusive [inhibitor, single point]",
O=C(O)/C(=C\c1cccc(C(F)(F)F)c1)c1ccc(S(=O)(=O)N2CCCC2)s1,inactive,
COc1ccc2c(c1)C(CC(C)=O)N(c1ccc(-c3cnc(OC)nc3)cc1)C(c1ccsc1)=C2 (centres undefined),"inconclusive [inhibitor, single point]",
CC1=NN(C(N)=S)C(=O)C1N=Nc1cccc(Cl)c1C (centres undefined),active: 8.2 µM,
C=CCn1c(SCC(=O)c2ccc(O)c(O)c2)nnc1-c1cccnc1,inactive,
CC(=O)C(Sc1nn(C)c(=S)s1)C(=O)Nc1ccccc1 (centres undefined),"inconclusive [inhibitor, single point]",
Cc1nc2nc(SCC(=O)NC3CCC(C)CC3)nn2c(C)c1Cc1ccccc1 (centres undefined),"inconclusive [inhibitor, single point]",
O=C(OOC(=O)c1ccccc1)c1ccccc1,inactive,
O=c1oc(CCO)cc2ccc(C#Cc3ccsc3)cc12,"inconclusive [inhibitor, single point]",
CCCCC#Cc1ccc2c(c1)COc1c3ccccc3nn1-2,"inconclusive [inhibitor, single point]",
CCNC(=S)NS(=O)(=O)c1ccc(F)cc1,inactive,
O=Cc1c[nH]c2cccc(OCc3ccccc3)c12,active: 23.1 µM,
CC(C)(C)C(=O)C(Cl)C(=O)Nc1ccccc1 (centres undefined),active: 4.11 µM,

SMILES,Potency,"activity change, negative = growth inhibition"
COc1ccc(NC(=O)CC2C(=O)N(c3cccc(C)c3)C(=O)N2C2CCCCC2)cc1 (centres undefined),"inconclusive [inhibitor, partial curve]",
COCCCn1c(=O)c2ccccc2n(Cc2ccc(C)cc2)c1=O,"inconclusive [inhibitor, single point]",
CC(=O)c1cccc(NC(=O)c2cc(-c3ccc(Cl)s3)nc3ccccc23)c1,"inconclusive [inhibitor, single point]",
COc1ccc2nc(NCCNC(=S)NCCCN3CCOCC3)c(C#N)cc2c1,"inconclusive [inhibitor, single point]",
COc1cc(NC(=O)c2cc3c(Cl)nc4ccccc4c3s2)cc(OC)c1OC,active: 8.2 µM,
O=C(COC(=O)c1cccs1)NCCC1=CCCCC1,inactive,
O=C(NCC1CC1)c1cccc2c(-c3ccc(F)c(F)c3)coc12,"inconclusive [inhibitor, single point]",
CCN(CC)C(=O)Cn1c(C)c(/C=C/c2cc[n+](C)cc2)c2ccccc21,"inconclusive [inhibitor, single point]",
Cc1cnc(C(=O)OCC(=O)c2cc(C)n(C)c2C)cn1,inactive,
COc1ccc(-c2nnc(SCC(=O)Nc3ccc(C(C)C)cc3)nc2-c2ccc(OC)c(OC)c2)cc1OC,"inconclusive [inhibitor, single point]",
c1nc(N2CCOCC2)c2c3c(sc2n1)CCCC3,"inconclusive [inhibitor, partial curve, poor fit]",
CCN(CC)CCC(=O)c1ccc(F)cc1,active: 2.31 µM,
CC(C)n1cc(CN2CCC(C(=O)Nc3ccc(Oc4ccccc4F)cc3)CC2)cn1,"inconclusive [inhibitor, single point]",
O=C1c2ccccc2C(=O)N1CCc1c(-c2[nH]c3ccccc3c2CCN2C(=O)c3ccccc3C2=O)[nH]c2ccccc12,active: 18.4 µM,
Cc1ccc(C)c(S(=O)(=O)N2CCN(C(=O)c3ccccc3Cc3ccccc3)CC2)c1,"inconclusive [inhibitor, single point]",
CC(C)(C)c1oc(C(=O)O)cc1CN1CCOCC1,inactive,
CC(=O)NC(=S)NNC(=O)CCc1ccccc1,"inconclusive [inhibitor, single point]",
CC1Cc2ccccc2N1C(=O)CSc1nnnn1C1CCCC1 (centres undefined),"inconclusive [inhibitor, full curve]",
Cc1ccc(-n2nc3ccc(NC(=O)c4ccc5c(c4)OCO5)cc3n2)cc1,"inconclusive [inhibitor, partial curve]",
CCCN(C(=O)COC(=O)c1nc2nc(C)cc(C)n2n1)C1CCS(=O)(=O)C1 (centres undefined),inactive,
C1=C(C(c2nnnn2C2CCCCC2)N2CCCCC2)COc2ccccc21 (centres undefined),active: 16.4 µM,
COc1ccc(/C(C)=N/N=C(\C)c2ccc(OC)cc2OC)c(OC)c1,"inconclusive [inhibitor, single point]",
CCc1ccc(/C=C2\SC(N3CCCC3)=NC2=O)cc1,"inconclusive [inhibitor, single point]",
CC(C)CCNC(=O)C(=O)Nc1ccccc1,inactive,
